Experimental findings from paper PMC9911399, “Two distinct binding modes provide the RNA-binding protein RbFox with extraordinary sequence specificity” are described below.

Where a chain is given by its changes, count along the chain named. The list shows a part of the results.

T1: RBFOX1 RRM (Homo sapiens, UniProt Q9NWB1 109-208)
T1 sequence: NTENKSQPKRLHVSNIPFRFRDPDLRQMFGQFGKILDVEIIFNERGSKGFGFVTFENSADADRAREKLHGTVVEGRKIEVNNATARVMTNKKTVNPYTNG

B1: CGUCGCC (DNA:RNA)
RNA: GGGAGACCGGAAUUCAGAUUGUCCCGUCGCCUUAAAUCCCGUCGUAGCCACCA
DNA 1: CAATCTGAATTCCGGTCTCCC
DNA 2: TGGTGGCTACGACGGGATT
B2: CAGUGGG (DNA:RNA)
RNA: B1 RNA with G26A, U27G, C28U, C30G, C31G
DNA 1: CAATCTGAATTCCGGTCTCCC
DNA 2: TGGTGGCTACGACGGGATT
B3: GCAGUAC (DNA:RNA)
RNA: B1 RNA with C25G, G26C, U27A, C28G, G29U, C30A
DNA 1: CAATCTGAATTCCGGTCTCCC
DNA 2: TGGTGGCTACGACGGGATT
B4: GGGCGUC (DNA:RNA)
RNA: B1 RNA with C25G, U27G, C30U
DNA 1: CAATCTGAATTCCGGTCTCCC
DNA 2: TGGTGGCTACGACGGGATT
B5: ACGACUC (DNA:RNA)
RNA: B1 RNA with C25A, G26C, U27G, C28A, G29C, C30U
DNA 1: CAATCTGAATTCCGGTCTCCC
DNA 2: TGGTGGCTACGACGGGATT
B6: AGUUAAG (DNA:RNA)
RNA: B1 RNA with C25A, C28U, G29A, C30A, C31G
DNA 1: CAATCTGAATTCCGGTCTCCC
DNA 2: TGGTGGCTACGACGGGATT
B7: UCUUGCA (DNA:RNA)
RNA: B1 RNA with C25U, G26C, C28U, C31A
DNA 1: CAATCTGAATTCCGGTCTCCC
DNA 2: TGGTGGCTACGACGGGATT
B8: AUGGCCG (DNA:RNA)
RNA: B1 RNA with C25A, G26U, U27G, C28G, G29C, C31G
DNA 1: CAATCTGAATTCCGGTCTCCC
DNA 2: TGGTGGCTACGACGGGATT
B9: GGUAGGG (DNA:RNA)
RNA: B1 RNA with C25G, C28A, C30G, C31G
DNA 1: CAATCTGAATTCCGGTCTCCC
DNA 2: TGGTGGCTACGACGGGATT
B10: AUUCUCG (DNA:RNA)
RNA: B1 RNA with C25A, G26U, G29U, C31G
DNA 1: CAATCTGAATTCCGGTCTCCC
DNA 2: TGGTGGCTACGACGGGATT
B11: UCCGUGC (DNA:RNA)
RNA: B1 RNA with C25U, G26C, U27C, C28G, G29U, C30G
DNA 1: CAATCTGAATTCCGGTCTCCC
DNA 2: TGGTGGCTACGACGGGATT
B12: GAUAGAA (DNA:RNA)
RNA: B1 RNA with C25G, G26A, C28A, C30A, C31A
DNA 1: CAATCTGAATTCCGGTCTCCC
DNA 2: TGGTGGCTACGACGGGATT
B13: GAUCAGC (DNA:RNA)
RNA: B1 RNA with C25G, G26A, G29A, C30G
DNA 1: CAATCTGAATTCCGGTCTCCC
DNA 2: TGGTGGCTACGACGGGATT
B14: UGGAAAC (DNA:RNA)
RNA: B1 RNA with C25U, U27G, C28A, G29A, C30A
DNA 1: CAATCTGAATTCCGGTCTCCC
DNA 2: TGGTGGCTACGACGGGATT
B15: UGGUUAA (DNA:RNA)
RNA: B1 RNA with C25U, U27G, C28U, G29U, C30A, C31A
DNA 1: CAATCTGAATTCCGGTCTCCC
DNA 2: TGGTGGCTACGACGGGATT
B16: AUGGUGU (DNA:RNA)
RNA: GGGAGACCGGAAUUCAGAUUGUCCAUGGUGUUUAAAUCCCGUCGUAGCCACCA
DNA 1: CAATCTGAATTCCGGTCTCCC
DNA 2: TGGTGGCTACGACGGGATT
B17: AUGGACA (DNA:RNA)
RNA: B16 RNA with U29A, G30C, U31A
DNA 1: CAATCTGAATTCCGGTCTCCC
DNA 2: TGGTGGCTACGACGGGATT
B18: CUAUGCU (DNA:RNA)
RNA: B1 RNA with G26U, U27A, C28U, C31U
DNA 1: CAATCTGAATTCCGGTCTCCC
DNA 2: TGGTGGCTACGACGGGATT
B19: CAAGGUU (DNA:RNA)
RNA: B16 RNA with A25C, U26A, G27A, U29G, G30U
DNA 1: CAATCTGAATTCCGGTCTCCC
DNA 2: TGGTGGCTACGACGGGATT
B20: AAUUUGG (DNA:RNA)
RNA: B16 RNA with U26A, G27U, G28U, U31G
DNA 1: CAATCTGAATTCCGGTCTCCC
DNA 2: TGGTGGCTACGACGGGATT

This assay has as its target T1, RBFOX1 RRM. Put plainly: EMSA; HiTS-Eq, 1 nM pool, 10 min; buffer printed only for the single-RNA assays: 10 mM Tris pH 7.5, 150 mM NaCl, 3.4 mM EDTA, 0.001% NP-40, 30 C. As to conditions: tags: His6 N-terminal (pET28a); label: 5' 32P. The method, boiled down:
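These values rest on relative association constants, computed from read-count changes of each RNA species versus the control reaction and normalised to the cognate motif. Reads came from free RNA recovered by 8% native PAGE after purified RbFox RRM (wild type or mutant) at increasing concentrations was equilibrated for 10 min in 50 µL with 1 nM of a 5′-radiolabelled pool with 7 randomized nucleotides and DNA-annealed flanks.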
Consider B1, for which the binding signal is 0.01 KA relative to UGCAUGU.

For the molecule B2, the binding signal was 0.0044 KA relative to UGCAUGU.

Take B3: the binding signal is 0.00875 KA relative to UGCAUGU.

B4: the binding signal was 0.0208 KA relative to UGCAUGU.

Regarding B5, the binding signal was 0.0029 KA relative to UGCAUGU.

Turning to B6, the binding signal is 0.0071 KA relative to UGCAUGU.

B7: the binding signal is 0.0204 KA relative to UGCAUGU.

In the case of B8, the binding signal is 0.0147 KA relative to UGCAUGU.

In the case of B9, the binding signal was 0.00958 KA relative to UGCAUGU.

On to B10, for which the binding signal was 0.00908 KA relative to UGCAUGU.

B11: the binding signal is 0.0168 KA relative to UGCAUGU.

As for B12, the binding signal was 0.0125 KA relative to UGCAUGU.

For B13, the binding signal was 0.00735 KA relative to UGCAUGU.

B14: the binding signal is 0.0149 KA relative to UGCAUGU.

Turning to B15, the binding signal is 0.00976 KA relative to UGCAUGU.

Turning to B16, the binding signal is 0.0152 KA relative to UGCAUGU.

Turning to B17, the binding signal is 0.00566 KA relative to UGCAUGU.

Regarding B18, the binding signal was 0.00888 KA relative to UGCAUGU.

For B19, the binding signal is 0.00552 KA relative to UGCAUGU.

Turning to B20, the binding signal was 0.0081 KA relative to UGCAUGU.
